Data taken from the supplement of paper PMC3334620.
Whole data set: some 33,000 sequences, median “E-score (-0.5 to 0.5)” near -0.036, cut for the highest 2% near 0.37. The list shows a part of the results.

What follows are sequences tested against T1, Yer064c (UniProt P40041) (assay: PBM E-score (8-mer binding enrichment) (E-score (-0.5 to 0.5)); higher = stronger / more preferred TF binding; most listed sequences are background and not binding sites). Conditions: protein concentration: 200 nM; construct: GST-full length.
T1 sequence: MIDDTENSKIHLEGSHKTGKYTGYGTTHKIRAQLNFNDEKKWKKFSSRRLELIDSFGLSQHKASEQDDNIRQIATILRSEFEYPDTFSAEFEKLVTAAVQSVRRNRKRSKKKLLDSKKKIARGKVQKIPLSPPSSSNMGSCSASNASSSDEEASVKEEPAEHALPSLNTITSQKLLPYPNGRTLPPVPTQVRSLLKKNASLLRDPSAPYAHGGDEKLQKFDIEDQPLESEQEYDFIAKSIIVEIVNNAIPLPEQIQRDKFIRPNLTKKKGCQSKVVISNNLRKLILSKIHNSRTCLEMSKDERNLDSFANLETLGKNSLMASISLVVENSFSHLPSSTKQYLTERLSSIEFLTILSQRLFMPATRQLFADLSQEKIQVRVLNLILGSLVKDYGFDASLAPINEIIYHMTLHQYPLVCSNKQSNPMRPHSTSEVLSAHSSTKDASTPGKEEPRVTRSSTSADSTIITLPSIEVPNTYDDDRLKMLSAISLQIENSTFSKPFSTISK
How it was run: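 Universal all-10-mer Agilent arrays, fresh or stripped once, were converted to double-stranded form by primer extension. GST-tagged yeast transcription factors from PURExpress in vitro transcription/translation, full-length or DNA-binding domain only, were applied at about 100-200 nM and detected with fluorescent anti-GST. After masliner normalisation, the Universal PBM Analysis Suite scored each ungapped eight-base word together with its reverse complement by E-score.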

Row | Sequence | PBM E-score
1 | CATTGGCA | 0.0966
2 | GGCCAAAC | -0.168
3 | CACATCGA | -0.0301
4 | AAGAACAT | -0.124
5 | CAAAGTTG | 0.0753
6 | GTCCGAGA | 0.0792
7 | AAGGGGAT | -0.204
8 | ATATTCGC | -0.075
9 | AATAGTCG | 0.346
10 | GCGAGCCC | -0.21
11 | CGGTAACA | 0.0284
12 | CCTAGATA | -0.154
13 | GCCCGTGA | -0.0227
14 | AGAGCCAC | 0.0176
15 | AAGCACTT | -0.04
16 | AAGAGGCG | -0.082
17 | CTGTAGGA | 0.0347
18 | CGTGACCA | -0.00231
19 | GCCTAGCC | -0.215
20 | AGCTCATA | 0.151
21 | AGCATTGA | 0.0639
22 | TTCGTAAA | -0.00227
23 | AGGGAGCA | -0.173
24 | ACACAACT | 0.0203
25 | AGTGCGCG | -0.269

Row | Sequence | PBM E-score
26 | GTGATCAA | 0.215
27 | ATGTTACC | -0.172
28 | CTAATGAG | 0.0791
29 | ATAGCACG | -0.317
30 | CCGCACGA | 0.147
31 | AAGGTATT | -0.0253
32 | CCCATGAC | 0.255
33 | CAATAGTC | 0.409
34 | AAAACGTT | 0.0497
35 | ACCGGATA | 0.0766
36 | CCTCAAGC | -0.0831
37 | GTGGACTA | 0.319
38 | GGCAGGCA | -0.336
39 | CAAATAAA | 0.0306
40 | ACGCGCCT | 0.0183
41 | GTGCGGGA | -0.101
42 | AAGCGGTG | -0.0536
43 | AACGGCTG | -0.0314
44 | AAATTGGC | -0.256
45 | CCATACAC | -0.06
46 | AAGCCACG | -0.192
47 | AGCGCGAG | -0.00436
48 | CTTAAAAG | 0.182
49 | TAATCCGA | 0.205
50 | CGAGATAG | -0.152

Row | Sequence | PBM E-score
51 | AAGTTAGA | -0.0136
52 | ATTCGCAG | -0.0137
53 | ACAAGGAG | 0.132
54 | ACAAGATG | 0.0445
55 | AAGTGCAT | -0.102
56 | ACTATCTG | 0.18
57 | CCCTCCAA | -0.12
58 | AGGCTCAT | 0.0724
59 | ACCAGAAA | 0.0648
60 | ACAGAAAT | -0.108
61 | TCGAAGAA | -0.136
62 | CCCAGTAA | -0.143
63 | ACCTGTAA | -0.0723
64 | CTTTATGC | -0.0254
65 | GCGTTAAC | -0.00287
66 | ACATCGAG | -0.128
67 | TTGTAAAA | 0.0051
68 | CGGGAGGC | -0.19
69 | ATTGGATC | -0.0186
70 | ACTAATCC | 0.208
71 | TGGTACAA | -0.0525
72 | GCCTGCCC | -0.343
73 | TATTATGA | 0.107
74 | CTGAGTTA | 0.185
75 | AACCGCGG | 0.0393

Row | Sequence | PBM E-score
76 | AAGCGCCT | -0.347
77 | GAGGGCCC | -0.331
78 | CACTTTGA | 0.184
79 | TAGGCATA | -0.312
80 | GCATTGGC | -0.167
81 | CGAATTTA | 0.0489
82 | GCAATGTA | -0.213
83 | ACCCCTGC | -0.229
84 | AGCCAACA | -0.135
85 | AGAGCGAT | -0.114
86 | ATCTCAGG | -0.0459
87 | AGGGTGGG | -0.0646
88 | ACGCGTGC | -0.0231
89 | ACCAAAGC | -0.135
90 | ATGATTTG | 0.299
91 | CATGTTAG | 0.116
92 | AGCCGGCA | -0.176
93 | GCACGTCA | -0.137
94 | CCTACAAC | -0.134
95 | ATCACGTA | 0.137
96 | GCCACACC | -0.2
97 | ATTTGTAG | 0.00901
98 | GCGATCAC | -0.0271
99 | AAAAATAT | 0.0883
100 | CCAACCTC | -0.23

Row | Sequence | PBM E-score
101 | GGCTCAAA | 0.213
102 | ACTCGCCC | 0.0905
103 | CTTGGCGA | -0.0294
104 | AAGAGCTA | -0.228
105 | CAAGGATG | -0.014
106 | AGACCAAC | -0.139
107 | GTTGCAAC | -0.034
108 | CTACATAA | 0.0056
109 | CATAGGCC | -0.158
110 | ACTATTAC | 0.111
111 | CCTGGAGC | -0.113
112 | CTAAAGTC | 0.279
113 | TATAACCA | 0.122
114 | TAAGCGAA | -0.0314
115 | AATCTTGC | 0.122
116 | ACATTTGA | 0.157
117 | ACGGCCGG | -0.182
118 | AGCCATTA | 0.252
119 | GTCAGCAA | 0.251
120 | ACCATCGA | -0.0442
121 | ACACGTTC | -0.271
122 | TGACATCA | 0.0345
123 | AAGAAACC | 0.0989
124 | TAATTAGA | -0.0163
125 | AATGCCGG | -0.219

Row | Sequence | PBM E-score
126 | TAACCGTA | -0.0427
127 | GCTATTCA | 0.124
128 | GGACCCAA | -0.149
129 | ATCCAGGG | -0.173
130 | CGTCGCCA | -0.274
131 | CTGCCTAC | -0.0918
132 | AGTCCGGG | 0.0365
133 | GCCAGCTA | -0.118
134 | GGCCGGAC | -0.145
135 | CGGGTGAA | 0.0246
136 | CCCGCGCG | -0.085
137 | GAGAGAAA | -0.02
138 | GACTTTGC | 0.0497
139 | AGTATCTC | 0.165
140 | AAAACATA | 0.0612
141 | GACGGATC | -0.0775
142 | AATACGTG | -0.0157
143 | ATTGATTG | 0.165
144 | ATAAATTG | 0.135
145 | GCTTTAAC | -0.0805
146 | ACGCTATG | -0.064
147 | CTAGGATA | -0.0789
148 | CGTGAACG | -0.187
149 | CCATTCCC | -0.126
150 | CGTTCACC | -0.284

Row | Sequence | PBM E-score
151 | AAAACGTA | -0.00988
152 | AATAACCT | 0.102
153 | AGGCATAC | -0.217
154 | ACATTCAA | 0.0397
155 | GAGTGTCC | -0.0363
156 | CGGAATGC | -0.396
157 | ACGTCACG | -0.289
158 | AATGGCCC | -0.374
159 | AGCTTACC | -0.0148
160 | CCATCATA | -0.0232
161 | GAGGTGAC | 0.224
162 | GAGACAAC | -0.036
163 | AAAGCAGT | 0.11
164 | CAGACCTG | -0.105
165 | CTTATCTC | -0.0792
166 | AACGAGGG | -0.0732
167 | ACTCAGAA | 0.338
168 | AGGTTAAT | 0.171
169 | GCTGTACC | -0.0973
170 | CCGGGACA | -0.133
171 | AAGGTGCG | -0.118
172 | AGGATTAG | 0.0974
173 | CGCACGCC | -0.0831
174 | ACTCTCTG | 0.247
175 | ATTTGTTC | 0.11

Row | Sequence | PBM E-score
176 | GGTCGTAA | -0.0401
177 | AACTCTTA | 0.0866
178 | GGCCCGAC | -0.188
179 | CGCACCGC | -0.207
180 | ATCGAGGA | 0.0662
181 | ATGTATTA | 0.0655
182 | GACATCGA | -0.0148
183 | GTTACGGA | -0.0114
184 | TACTCGCA | 0.211
185 | AAGCTACC | 0.0356
186 | ACACTCAA | 0.155
187 | ACCTGCCC | -0.188
188 | AATGCCAA | -0.167
189 | AAACAAGC | -0.214
190 | AACGGTCC | -0.244
191 | GCTATACC | -0.129
192 | AGCACCTG | -0.12
193 | CGCTCACC | -0.256
194 | ATCAGCAA | -0.0245
195 | AAAGACCC | -0.0176
196 | ATGCTTGA | 0.078
197 | ATGCGCGA | 0.0822
198 | TCGATCCA | -0.1
199 | ATCACAAG | 0.194
200 | ACTGGAGA | -0.0901

Row | Sequence | PBM E-score
201 | AGGTTTAC | -0.11
202 | AGAGGACT | 0.249
203 | AAGTACAA | 0.0912
204 | CACGACAA | -0.0584
205 | CTCCCCTC | -0.0464
206 | GGGTATCA | -0.0346
207 | ATCCGATA | -0.138
208 | CTCTTTTC | -0.00184
209 | CTGAGAAA | 0.121
210 | AAGATGCG | -0.207
211 | CTCCCGGA | -0.119
212 | GACGTGTA | 0.0305
213 | AACACGAA | 0.142
214 | GAAGGCTA | -0.0025
215 | CTATGAAC | 0.0923
216 | AACACCAC | -0.0248
217 | GCTGAAAA | -0.118
218 | CGGATCCA | -0.0202
219 | AGTAGTCA | 0.478
